Experimental data taken from patent publication US11000038B2, “Pyridone compounds and agricultural and horticultural fungicides containing the same as active ingredients” (priority 2017, dated 2021).

Experiments:
[1] = system: cabbage Alternaria sooty spot fungi (Alternaia brassicicola); test: Test Example C: cabbage Alternaria sooty spot, spray treatment of cabbage plants; type: in vivo; conditions: spray treatment of cabbage plants; control value=100{1-(n/3)}
Description: [Test Example C] Cabbage Alternaria Sooty Spot
Test plants (cabbage variety: Shikidori) were cultivated until the cotyledons extended after the sowing of seeds.
<Control Value> Control value=100{1−(n/3)}

[2] = system: wheat brown rust fungi (Puccinia recondita); test: Test Example E: wheat brown rust, spray treatment of wheat plants; type: in vivo; conditions: spray treatment of wheat plants; control value=100{1-(n/3)}
[3] = system: gray mold fungi (Botrytis cinerea); test: Test Example B: tomato gray mold, spray treatment of tomato plants; conditions: spray treatment of tomato plants; control value=100{1-(n/3)}
[4] = system: grape downy mildew fungus (Plasmopara viticola); test: Test Example G: grape downy mildew, spray treatment of grape plants; conditions: 250 ppm spray, 2.5 ml/pot, grape Neomuscat; 7 to 10 days from inoculation
[5] = system: barley powdery mildew fungi (Blumeria graminis f. sp. hordei); test: Test Example D: barley powdery mildew, spray treatment of barley plants; conditions: spray treatment of barley plants; control value=100{1-(n/3)}

Row | SMILES | Test C control value class (cabbage Alternaria sooty spot) [1] | Test E control value class (wheat brown rust) [2] | Test B control value class (tomato gray mold) [3] | Test G control value class (grape downy mildew) [4] | Test D control value class (barley powdery mildew) [5]
1 | COc1cc(F)c(-c2c(Br)c(=O)c(Cl)cn2-c2cccnc2OC)c(F)c1 [Compound 39] | H (H shows the control value of more than 50%) | H (H shows the control value of more than 50%) | H (H shows the control value of more than 50%) | H (H shows the control value of more than 50%) | H (H shows the control value of more than 50%)
2 | CC(C)C(C)n1cc(Cl)c(=O)c(Br)c1-c1c(F)cc(F)cc1F (centres unmarked) [Compound 42] | H (H shows the control value of more than 50%) | H (H shows the control value of more than 50%) | H (H shows the control value of more than 50%) | H (H shows the control value of more than 50%) | H (H shows the control value of more than 50%)
3 | O=c1c(Br)cn(-c2ccccc2Br)c(-c2c(F)cc(F)cc2F)c1Br [Compound 44] | H (H shows the control value of more than 50%) | H (H shows the control value of more than 50%) | H (H shows the control value of more than 50%) | L (L shows the control value of 50% or less) | H (H shows the control value of more than 50%)
4 | O=c1c(Cl)cn(-c2ccccc2Br)c(-c2c(F)cc(F)cc2F)c1Br [Compound 46] | H (H shows the control value of more than 50%) | H (H shows the control value of more than 50%) | H (H shows the control value of more than 50%) | H (H shows the control value of more than 50%) | H (H shows the control value of more than 50%)
5 | CC(C)C(C)n1cc(Br)c(=O)c(Br)c1-c1c(F)cc(F)cc1F (centres unmarked) [Compound 47] | H (H shows the control value of more than 50%) | H (H shows the control value of more than 50%) | H (H shows the control value of more than 50%) | L (L shows the control value of 50% or less) | H (H shows the control value of more than 50%)
6 | COc1cc(F)c(-c2c(Br)c(=O)c(Cl)cn2C(C)C(C)C)c(F)c1 (centres unmarked) [Compound 50] | H (H shows the control value of more than 50%) | H (H shows the control value of more than 50%) | H (H shows the control value of more than 50%) | H (H shows the control value of more than 50%) | H (H shows the control value of more than 50%)
7 | COc1cc(F)c(-c2c(Cl)c(=O)c(Br)cn2C(C)C(C)C)c(F)c1 (centres unmarked) [Compound 51] | H (H shows the control value of more than 50%) | H (H shows the control value of more than 50%) | H (H shows the control value of more than 50%) | L (L shows the control value of 50% or less) | H (H shows the control value of more than 50%)
8 | COc1cc(F)c(-c2c(Cl)c(=O)c(Cl)cn2C(C)C(C)C)c(F)c1 (centres unmarked) [Compound 52] | H (H shows the control value of more than 50%) | H (H shows the control value of more than 50%) | H (H shows the control value of more than 50%) | L (L shows the control value of 50% or less) | H (H shows the control value of more than 50%)
9 | COc1cc(F)c(-c2c(Br)c(=O)c(Br)cn2C(C)C(C)C)c(F)c1 (centres unmarked) [Compound 53] | H (H shows the control value of more than 50%) | H (H shows the control value of more than 50%) | H (H shows the control value of more than 50%) | L (L shows the control value of 50% or less) | L (L shows the control value of 50% or less)
10 | O=c1c(Br)cn(-c2ccccc2Cl)c(-c2c(F)cccc2F)c1Cl [Compound 54] | H (H shows the control value of more than 50%) | H (H shows the control value of more than 50%) | H (H shows the control value of more than 50%) | H (H shows the control value of more than 50%) | H (H shows the control value of more than 50%)
11 | COc1cc(F)c(-c2c(Cl)c(=O)c(Cl)cn2Cc2ccccc2)c(F)c1 [Compound 58] | H (H shows the control value of more than 50%) | H (H shows the control value of more than 50%) | H (H shows the control value of more than 50%) | H (H shows the control value of more than 50%) | H (H shows the control value of more than 50%)
12 | COc1cc(F)c(-c2c(Br)c(=O)c(Cl)cn2Cc2ccccc2)c(F)c1 [Compound 59] | H (H shows the control value of more than 50%) | H (H shows the control value of more than 50%) | H (H shows the control value of more than 50%) | H (H shows the control value of more than 50%) | L (L shows the control value of 50% or less)
13 | O=c1c(Cl)cn(-c2ccccc2Cl)c(-c2c(F)cccc2F)c1Br [Compound 60] | H (H shows the control value of more than 50%) | H (H shows the control value of more than 50%) | H (H shows the control value of more than 50%) | L (L shows the control value of 50% or less) | L (L shows the control value of 50% or less)
14 | O=c1c(Cl)cn(-c2ccccc2Cl)c(-c2c(F)cccc2F)c1Cl [Compound 61] | H (H shows the control value of more than 50%) | H (H shows the control value of more than 50%) | H (H shows the control value of more than 50%) | L (L shows the control value of 50% or less) | H (H shows the control value of more than 50%)
15 | Cc1ccccc1-n1cc(Cl)c(=O)c(Br)c1-c1c(F)cc(F)cc1F [Compound 62] | H (H shows the control value of more than 50%) | H (H shows the control value of more than 50%) | H (H shows the control value of more than 50%) | H (H shows the control value of more than 50%) | H (H shows the control value of more than 50%)
16 | Cc1ccccc1-n1cc(Cl)c(=O)c(Cl)c1-c1c(F)cc(F)cc1F [Compound 63] | H (H shows the control value of more than 50%) | H (H shows the control value of more than 50%) | H (H shows the control value of more than 50%) | L (L shows the control value of 50% or less) | H (H shows the control value of more than 50%)
17 | COc1cc(F)c(-c2c(Cl)c(=O)c(Cl)cn2-c2ccccc2C)c(F)c1 [Compound 64] | H (H shows the control value of more than 50%) | H (H shows the control value of more than 50%) | H (H shows the control value of more than 50%) | H (H shows the control value of more than 50%) | H (H shows the control value of more than 50%)
18 | COc1cc(F)c(-c2c(Br)c(=O)c(Cl)cn2-c2ccccc2C)c(F)c1 [Compound 65] | H (H shows the control value of more than 50%) | H (H shows the control value of more than 50%) | H (H shows the control value of more than 50%) | L (L shows the control value of 50% or less) | H (H shows the control value of more than 50%)
19 | Cc1ccccc1-n1cc(Br)c(=O)c(Cl)c1-c1c(F)cc(F)cc1F [Compound 66] | H (H shows the control value of more than 50%) | H (H shows the control value of more than 50%) | H (H shows the control value of more than 50%) | L (L shows the control value of 50% or less) | H (H shows the control value of more than 50%)
